For 153 variants, enrichment ratio results are on record in a collection of fitness landscapes (doi:10.1126/science.1257360).

The other results are listed elsewhere or left out. Some results are limits rather than exact numbers.

B1: PhoQ; a variant is named by its letters at X, in order, P23837 (parent)
chain: MKKLLRLFFPLSLRVRFLLATAAVVLVLSLAYGMVALIGYSVSFDKTTFRLLRGESNLFYTLAKWENNKLHVELPENIDKQSPTMTLIYDENGQLLWAQRDVPWLMKMIQPDWLKSNGFHEIEADVNDTSLLLSGDHSIQQQLQEVREDDDDAEMTHSVAVNVYPATSRMPKLTIVVVDTIPVELKSSYMVWSWFIYVLSANLLLVIPLLWVAAWWSLRPIEALAKEVRELEEHNRELLNPATTRELTSLVRNLNRLLKSERERYDKYRTTLTDLTHSLKTPLXXLQXXLRSLRSEKMSVSDAEPVMLEQISRISQQIGYYLHRASMRGGTLLSRELHPVAPLLDNLTSALNKVYQRKGVNISLDISPEISFVGEQNDFVEVMGNVLDNACKYCLEFVEISARQTDEHLYIVVEDDGPGIPLSKREVIFDRGQRVDTLRPGQGVGLAVAREITEQYEGKIVAGESMLGGARMEVIFGRQHSAPKDE

The experiment covers variants of B1. The experiment can be described thus: enrichment ratio after two sorts for PhoP signalling (ratio (wild type AVST 3.29)); higher = more functional. Particulars: with PhoP (E. coli).
For LAAT, the enrichment ratio was no more than 0.25. As to MASL, the enrichment ratio turned out to be 5.29. Take NEGF: the enrichment ratio is no more than 0.25. With KNPW, the enrichment ratio is no more than 0.25.

For YFVI, the enrichment ratio was no more than 0.25. For WHLT, the enrichment ratio is no more than 0.25. With GTGR, the enrichment ratio is no more than 0.25. As for TMSA, the enrichment ratio is 15.1. Regarding AWVT, the enrichment ratio was no more than 0.25. The figure for YKYR is no more than 0.25; for NSGD it is no more than 0.25; for PLYI it is no more than 0.25.

Turning to WNCY, the enrichment ratio was no more than 0.25. With ICPG, the enrichment ratio was no more than 0.25.

On to DMVP, for which the enrichment ratio is no more than 0.25. The figure for TGCE is 24.6. For the variant WHKD, the enrichment ratio was no more than 0.25. LEMC: the enrichment ratio was 2.61. Under KGFG stands no more than 0.25; under GETW, no more than 0.25; under NTWN, no more than 0.25. The figure for TEAI is 20.4; for MQCC it is 11.8. As to HALS, the enrichment ratio was no more than 0.25. The figure for LVKI is no more than 0.25. Turning to WPIE, the enrichment ratio is no more than 0.25. Regarding KASM, the enrichment ratio was no more than 0.25. Under GYFC stands no more than 0.25. Regarding SGGN, the enrichment ratio is no more than 0.25.

Take IIYN: the enrichment ratio is no more than 0.25. Take DDRY: the enrichment ratio was no more than 0.25.

With SIFF, the enrichment ratio was no more than 0.25. Consider VHQD, for which the enrichment ratio was no more than 0.25. For NAPF, the enrichment ratio is no more than 0.25.

As to WCLE, the enrichment ratio was no more than 0.25. The figure for KIHI is no more than 0.25; for ENSW it is no more than 0.25; for FGFS it is no more than 0.25. For the variant LFMC, the enrichment ratio was no more than 0.25. NEQI: the enrichment ratio was no more than 0.25. The figure for MMHA is no more than 0.25; for IDHY it is no more than 0.25. RVTW: the enrichment ratio was no more than 0.25. Under GSFN stands no more than 0.25; under EPTR, no more than 0.25. On to DLWQ, for which the enrichment ratio was no more than 0.25. Turning to YRFI, the enrichment ratio is no more than 0.25. As for LSGY, the enrichment ratio is no more than 0.25.

With VSCR, the enrichment ratio was no more than 0.25. Consider FSAE, for which the enrichment ratio came out at 1.19.

For the variant KVDS, the enrichment ratio is no more than 0.25.

With HDLL, the enrichment ratio is no more than 0.25.

With TSPF, the enrichment ratio was no more than 0.25.

In the case of SYHG, the enrichment ratio was no more than 0.25.

VHTR: the enrichment ratio was no more than 0.25.

In the case of ELWW, the enrichment ratio was no more than 0.25. Take LEDN: the enrichment ratio was no more than 0.25. Turning to LFYP, the enrichment ratio was no more than 0.25. Take ISPG: the enrichment ratio is no more than 0.25. For the variant KIVS, the enrichment ratio is no more than 0.25. With HWYD, the enrichment ratio is no more than 0.25. The figure for FLMP is no more than 0.25; for PQMQ it is no more than 0.25; for YMII it is no more than 0.25. As for RYIQ, the enrichment ratio is no more than 0.25. As to SKDS, the enrichment ratio was no more than 0.25. The figure for IIWV is no more than 0.25.

Regarding PMYH, the enrichment ratio was no more than 0.25. The figure for IYPW is no more than 0.25; for ETPW it is no more than 0.25; for GIIQ it is 6.31. As to WVNH, the enrichment ratio was no more than 0.25. The figure for DFVF is no more than 0.25; for PHDF it is no more than 0.25; for FKLF it is no more than 0.25. As for TQDW, the enrichment ratio was no more than 0.25. For EHEC, the enrichment ratio is no more than 0.25.

Take NSQT: the enrichment ratio is no more than 0.25. The figure for FPTN is no more than 0.25. With HVPM, the enrichment ratio was no more than 0.25. On to DGRL, for which the enrichment ratio was no more than 0.25. Turning to RRRF, the enrichment ratio is no more than 0.25. For NFHH, the enrichment ratio was no more than 0.25. Under TFPH stands no more than 0.25; under ESGW, no more than 0.25. Under QDMK stands no more than 0.25; under VLRC, no more than 0.25. As to DAIH, the enrichment ratio was no more than 0.25. As for MQEC, the enrichment ratio is no more than 0.25. Turning to FWCA, the enrichment ratio is no more than 0.25. Under NHPR stands no more than 0.25; under VPNR, no more than 0.25; under LIYW, no more than 0.25. HDQT: the enrichment ratio is no more than 0.25.

On to EMTE, for which the enrichment ratio is no more than 0.25. As for RAMF, the enrichment ratio was no more than 0.25.

Take KYVH: the enrichment ratio was no more than 0.25. With DGPG, the enrichment ratio was no more than 0.25. Turning to HGHN, the enrichment ratio is no more than 0.25.

As to LCHI, the enrichment ratio is no more than 0.25. For the variant QGSM, the enrichment ratio stood at 9.07. Turning to DDAI, the enrichment ratio was no more than 0.25.

SFPT: the enrichment ratio was no more than 0.25. Under WNYW stands no more than 0.25; under NKCL, no more than 0.25. For the variant RSQW, the enrichment ratio is 0.274. The figure for LTYQ is 4.75; for VKLK it is no more than 0.25; for RTDA it is no more than 0.25.

Take WYNN: the enrichment ratio was no more than 0.25. For YADD, the enrichment ratio is no more than 0.25. Turning to NYHH, the enrichment ratio was no more than 0.25. For the variant RYHF, the enrichment ratio was no more than 0.25. In the case of YKWF, the enrichment ratio was no more than 0.25. Turning to ADSK, the enrichment ratio is no more than 0.25. With INKM, the enrichment ratio was no more than 0.25.

Turning to ICWW, the enrichment ratio is no more than 0.25. The figure for LHTI is no more than 0.25; for DDTG it is no more than 0.25. Turning to YFHI, the enrichment ratio is no more than 0.25. The figure for QVQF is no more than 0.25; for HPFK it is no more than 0.25; for KNVG it is no more than 0.25. Turning to MSWD, the enrichment ratio was no more than 0.25. With GPPC, the enrichment ratio is no more than 0.25. With MRRG, the enrichment ratio was no more than 0.25. For DAWD, the enrichment ratio was no more than 0.25. YCQM: the enrichment ratio was no more than 0.25. For FWCF, the enrichment ratio was no more than 0.25.

For the variant CLFP, the enrichment ratio is no more than 0.25. For the variant IWKL, the enrichment ratio was no more than 0.25. For PPPE, the enrichment ratio is no more than 0.25.

Consider LLLF, for which the enrichment ratio was no more than 0.25. Consider LMVS, for which the enrichment ratio is no more than 0.25. In the case of ITSF, the enrichment ratio is no more than 0.25.

SMSG: the enrichment ratio turned out to be 4.92.

Take SCFI: the enrichment ratio is no more than 0.25. For the variant FKRR, the enrichment ratio is no more than 0.25. For GSFV, the enrichment ratio is no more than 0.25. Regarding KIDW, the enrichment ratio is no more than 0.25.

For the variant RFHG, the enrichment ratio was no more than 0.25. Consider DHAH, for which the enrichment ratio is no more than 0.25. For ARKP, the enrichment ratio is no more than 0.25. Under RQFK stands no more than 0.25. Regarding MMPE, the enrichment ratio is no more than 0.25.

In the case of KGYN, the enrichment ratio is no more than 0.25. On to RAVD, for which the enrichment ratio was no more than 0.25.

Take VFGY: the enrichment ratio was no more than 0.25. The figure for YRVN is no more than 0.25; for DTMN it is no more than 0.25; for KRCV it is no more than 0.25. Consider INKS, for which the enrichment ratio is no more than 0.25. With EEDH, the enrichment ratio was no more than 0.25.
